Sequences with one replicate were seen in a single cluster, so their values are uncertain.
System: ATP
Assay: switch fluorescence ratio, 500 uM ATP over buffer (Cy3 cluster intensity, sum of 5 cycles each) (fold (ratio)); higher = stronger signal-on switching upon ATP binding; sequences stand for … in TCGTCGGCAGCGTCAGATGTGTATAAGAGACAGTTTTTTTTTTTTTTTTTTTTTTTTT…TC
Settings: aptamer strand: ATP DNA aptamer (quencher-CACCTGGGGGAGTATTGCGGAGGAAGG + anchor), 100 nM annealed; ATP concentration: 500 uM; one replicate
Summary of the method: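 Imaging in selection buffer was followed by imaging after 15 min with 500 uM ATP at 22 °C, for Cy3-labelled switching-strand clusters annealed to 100 nM quencher-labelled ATP aptamer on a modified Illumina MiSeq flow-cell. Five of these buffer/ATP cycles ran, separated by NaOH stripping and re-annealing. The fluorescence ratio per cluster is summed target-cycle over summed buffer-cycle Cy3 intensity, averaged per switch-domain sequence; clusters outside 100-1000 RFU were removed.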
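Note: ATP exposure 15 min at 22 °C before imaging.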

Sequence | switch fluorescence ratio
AGATCTTAG | 1
TGGTTCGCGT | 1.1
AGTGGATGG | 0.941
CGAGATAATT | 0.963
TAGACGGACA | 1.19
GAGGGGTCTC | 1.05
TTTTGCGTAC | 3.32
CGGAGCGCAC | 4.5
AATCGAGATG | 0.973
CCGTACTCGA | 1.48
TTATGATCGA | 0.902
ACAGCTACGC | 1.06
CTAAGACTGA | 1
ACCTGGAAGG | 0.961
GCCCGTGGCG | 0.977
TACACTTTAT | 0.999
CACTCCATAT | 1.3
AACCGTGTG | 1.04
AGTTAAGTGG | 0.959
TTTGAAAGAT | 1.03
AACACGGAGT | 0.994
ATTAGCACGC | 1.04
CTTCTGTCGG | 1.02
TCGTGCGAGG | 0.995
ATTGTTAAAG | 0.992

Sequence | switch fluorescence ratio
AAAATCGATG | 1.02
TCGTCTCCAT | 0.972
TCCTTGTGGA | 0.987
GTTATCGGGC | 1.03
GTCAAGATAA | 0.979
CGGTACATTA | 1.02
GAAGGATACG | 0.976
CTTTTATGGT | 0.977
TAAGTCATTT | 0.993
GCTATATCCT | 1.09
ATAATCTACT | 1.07
TATTTGCTCT | 0.961
GCGGCCTGAG | 1.04
TCAAATGGG | 0.918
TAAACGGGAA | 1.01
CTGTGAATTT | 0.955
CTTCAAGGGA | 0.989
ATAGGAGCTT | 1
TACGCCACGG | 1.59
CAAGATCCCT | 0.988
TCATACCCGA | 1.02
GTATGAGGCA | 0.98
ACCTACGTCG | 1.4
AAGTCACGAG | 1.05
CGGGAAGGGA | 0.974

Sequence | switch fluorescence ratio
TGCGGGCGAA | 0.977
AGATGGGCTT | 0.979
ACTTGCTGGA | 1.01
AACAATAACA | 1.05
TCCGGAGTGG | 2.17
TTGATTGGGT | 1.02
TCTAATGCTT | 0.95
AATACCCGAC | 1.35
ATGGGCAGAA | 0.985
GGCATACAGG | 1.02
GGGACGAATA | 1.02
CCATGCGGT | 1.06
TTGCCATATG | 1.02
GAACTGGGG | 0.969
AGCGACAGTT | 1.03
AGGTCTCAAC | 1.03
TTTCCGTATA | 1.27
CGAGAATTGA | 0.967
TAGCACAATG | 0.98
CATACCTCT | 1.01
GCGGTATACC | 0.983
AGTTGGAGAC | 0.971
CTATTTTG | 1.04
TTTCTTGCCC | 1.06
TTCACTGTAG | 1.14

Sequence | switch fluorescence ratio
CAGTTCGCCA | 0.989
GCTTGGCAAG | 0.99
TACGCCCCG | 1.08
TAAGCCCCGG | 1.05
GGTATCGAAA | 0.954
CCATGTTGTG | 1
GCATTTAAT | 1.01
CGTCAGTAAT | 1.6
TGTCAGGGTC | 1
CCCTTGAAGG | 0.993
TGCGTTCACG | 0.979
GGCGTAGATG | 1
ATGGACTTGG | 1.03
GGACTTTAAA | 1.01
AAAACGACCT | 1.5
TTAGGGCAAT | 1.83
GCTTATTCGC | 0.994
ACAGTTGGTC | 1.02
TACCAGTGTC | 0.999
TAGCGAACG | 1.05
TAGTCGCACA | 0.992
CGTTGTCTCT | 1.05
TTTGGCCTCG | 0.952
TATTAAACAT | 1.05
GACTTAAAAG | 1.01

Sequence | switch fluorescence ratio
CTATACTAGC | 0.978
GGGAACTATA | 1.02
CTCACTCCAG | 1.11
CCGCGGATGT | 1.09
TGAGTCGAAA | 0.994
ATTTGCACGT | 1.06
AGTTAATCAT | 1.05
CAAGGAAAGC | 1.02
TACGGTAGTC | 1.01
TATTGAAACG | 1.01
TGAAGGTGGT | 1.02
GATGGAATCC | 1.05
AAAACGTGGA | 0.99
CGCTTGGGCT | 1.02
TACGATAGGA | 1.08
GTTGACCAAA | 1.01
AGAACCGGGG | 0.99
ACCATAAACT | 1.12
TTAAGCTTGT | 0.933
TGGGTTCACA | 1.01
TTAACGGTGC | 1.04
GTCTGATAGC | 1.02
GGGCCTGTGG | 0.974
TTGGCTCCCG | 0.949
GATGGGCCTG | 0.975

Sequence | switch fluorescence ratio
TAAACCAGTG | 1.16
ATTTCAGTGC | 0.985
TCAATTCATC | 0.973
TAAAGATTCA | 1.02
GTTGGTTGT | 1.01
AGGAGTACCC | 1
GTAAGCCTGA | 0.998
CGTTCCTTCC | 2.98
CAATGGCTAC | 1.22
TCCTCGGTG | 1.14
CTGGGGCAAC | 1.2
GAACTATGTT | 1
CGGACGCGCA | 1.79
CGGCTTTTCA | 0.993
TATAACTGCA | 1.02
CCCGGCTCCC | 2.19
AACATGTGGG | 0.99
GCGCTCATTC | 1.14
ATAGGAAACG | 0.944
ATTTTTCGGA | 1.03
AGAATCGCAG | 1
TTTAAAACTG | 1
GCATCAGCGT | 1.01
TAAAAGCATC | 1.02
CGCTACCGCG | 1.02

Sequence | switch fluorescence ratio
AATCTAGTGG | 1
GGCTAAGCCT | 0.986
GGTTTCCGCG | 1.15
CTCAGTAGTG | 1.04
CGCATGGCCG | 1.05
TATAGGGTGG | 0.999
GTTATTCTAT | 0.978
TTTTGGTATG | 1.03
GGAATAGGAT | 0.98
CAGGATAGCA | 1.04
GTAAGGATTG | 1.02
AATGGTCTGC | 0.954
CCCCAATCCA | 1.06
CTCATGGGAT | 1.04
TATGGATTAC | 1.01
GATCTTTATG | 0.956
TTTTTACATA | 1.05
TAATACACCG | 1
CGGCGGGATA | 1.02
AAAGGCACTC | 1.05
TGAATAGGTA | 1
GTCTCAGGCC | 0.962
ACGTCCAGTC | 0.991
CTGCGTTCGG | 0.966
TAATGCGTAG | 0.948

Sequence | switch fluorescence ratio
GTGTGCGTGC | 0.943
CAAATCTGTT | 1.03
GTGAGGGTAC | 0.953
AACCGGCATC | 1.12
TTGCCAGCAT | 1.03
AATCCATGAG | 0.983
TCGAATAGTA | 0.989
GGTGGTTCAT | 1.02
ATTAGTTTGC | 0.979
ACTTAGGT | 1.04
GTTGATGAAC | 1.02
GACGAGGCTC | 1.74
GCCCCGGCGT | 1.03
GCGACGTGCA | 1.07
CTTAATAGGA | 1.01
CCCTTCTCGC | 1.76
GGCTTTGCGC | 1
CTGATACTAT | 0.991
CAATCATGT | 0.999
TAGGCCACAA | 1.04
GCGCGAGCAA | 1.03
AATGTGGGC | 1.03
CATGAGGTTT | 0.995
GGTTATTAGT | 1.01
GTTCTAAGGG | 1.05

— the supplement of paper PMC10126150
